Data reported in the supplement of paper PMC8728848.
The list shows a part of the results.

Assays:
Test in all cases: glycan array binding signal (z-score within array); higher = stronger binding
Details in all cases: glycan notation: IUPAC condensed, linker removed
[1] = target: Gal(b1-3)GlcNAc(b1-6)[Gal(b1-3)]GalNAc
Summary of the method: (§1)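 From the Consortium for Functional Glycomics database, 3228 arrays were curated, keeping only those whose protein sequence was available. Binding is given as a within-array Z-score averaged across arrays sharing a protein sequence and across linkers. Negative Z-scores can be read as non-binding.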

Gal(b1-3)GlcNAc6S = target: Gal(b1-3)GlcNAc6S
Summary of the method: as §1

[2] = target: Gal(b1-3)[Fuc(a1-4)]GlcNAc
Summary of the method: as §1

[3] = target: Gal(b1-3)[Fuc(a1-4)]GlcNAc(b1-2)Man
Summary of the method: as §1

[4] = target: Gal(b1-3)[Fuc(a1-4)]GlcNAc(b1-2)Man(a1-3)[Gal(b1-3)[Fuc(a1-4)]GlcNAc(b1-2)Man(a1-6)]Man(b1-4)GlcNAc(b1-4)[Fuc(a1-6)]GlcNAc
Summary of the method: as §1

[5] = target: Gal(b1-3)[Fuc(a1-4)]GlcNAc(b1-3)Gal(b1-3)[Fuc(a1-4)]GlcNAc
Summary of the method: as §1

[6] = target: Gal(b1-3)[Fuc(a1-4)]GlcNAc(b1-3)Gal(b1-4)GlcNAc
Summary of the method: as §1

[7] = target: Gal(b1-3)[Fuc(a1-4)]GlcNAc(b1-3)Gal(b1-4)[Fuc(a1-3)]GlcNAc
Summary of the method: as §1

[8] = target: Gal(b1-3)[Fuc(a1-4)]GlcNAc(b1-6)GalNAc
Summary of the method: as §1

[9] = target: Gal(b1-3)[GlcNAc(b1-6)]GalNAc
Summary of the method: as §1

[10] = target: Gal(b1-3)[GlcNAc(b1-6)]GlcNAc
Summary of the method: as §1

[11] = target: Gal(b1-3)[Neu5Ac(a2-6)]GalNAc
Summary of the method: as §1

[12] = target: Gal(b1-3)[Neu5Ac(a2-6)]GlcNAc
Summary of the method: as §1

[13] = target: Gal(b1-3)[Neu5Ac(a2-6)]GlcNAc(a1-4)Gal(b1-4)Glc
Summary of the method: as §1

[14] = target: Gal(b1-3)[Neu5Ac(a2-6)]GlcNAc(b1-4)Gal(b1-4)Glc
Summary of the method: as §1

[15] = target: Gal(b1-3)[Neu5Ac(a2-6)]GlcNAc(b1-6)Gal(b1-4)Glc
Summary of the method: as §1

[16] = target: Gal(b1-3)[Neu5Ac(b2-6)]GalNAc
Summary of the method: as §1

[17] = target: Gal(b1-3)[Neu5Ac(b2-6)]GlcNAc
Summary of the method: as §1

Gal(b1-4)Gal = target: Gal(b1-4)Gal
Summary of the method: as §1

[18] = target: Gal(b1-4)GalNAc(a1-3)[Fuc(a1-2)]Gal(b1-4)GlcNAc
Summary of the method: as §1

[19] = target: Gal(b1-4)GalNAc(b1-3)[Fuc(a1-2)]Gal(b1-4)GlcNAc
Summary of the method: as §1

Gal(b1-4)Glc = target: Gal(b1-4)Glc
Summary of the method: as §1

Gal(b1-4)Glc6S = target: Gal(b1-4)Glc6S
Summary of the method: as §1

Gal(b1-4)GlcNAc = target: Gal(b1-4)GlcNAc
Summary of the method: as §1

[20] = target: Gal(b1-4)GlcNAc(a1-6)Gal(b1-4)GlcNAc
Summary of the method: as §1

Gal(b1-4)GlcNAc(b1-2)Man = target: Gal(b1-4)GlcNAc(b1-2)Man
Summary of the method: as §1

[21] = target: Gal(b1-4)GlcNAc(b1-2)Man(a1-3)Man(b1-4)GlcNAc(b1-4)GlcNAc
Summary of the method: as §1

[22] = target: Gal(b1-4)GlcNAc(b1-2)Man(a1-3)[Gal(b1-4)GlcNAc(b1-2)Man(a1-6)]Man(b1-4)GlcNAc(b1-4)GlcNAc
Summary of the method: as §1

[23] = target: Gal(b1-4)GlcNAc(b1-2)Man(a1-3)[Gal(b1-4)GlcNAc(b1-2)Man(a1-6)]Man(b1-4)GlcNAc(b1-4)[Fuc(a1-6)]GlcNAc
Summary of the method: as §1

[24] = target: Gal(b1-4)GlcNAc(b1-2)Man(a1-3)[Gal(b1-4)GlcNAc(b1-2)Man(a1-6)][Gal(b1-4)GlcNAc(b1-4)]Man(b1-4)GlcNAc(b1-4)[Fuc(a1-6)]GlcNAc
Summary of the method: as §1

[25] = target: Gal(b1-4)GlcNAc(b1-2)Man(a1-3)[Gal(b1-4)GlcNAc(b1-2)Man(a1-6)][GlcNAc(b1-4)]Man(b1-4)GlcNAc(b1-4)[Fuc(a1-6)]GlcNAc
Summary of the method: as §1

[26] = target: Gal(b1-4)GlcNAc(b1-2)Man(a1-3)[GlcNAc(b1-2)Man(a1-6)]Man(b1-4)GlcNAc(b1-4)GlcNAc
Summary of the method: as §1

[27] = target: Gal(b1-4)GlcNAc(b1-2)Man(a1-3)[GlcNAc(b1-4)][Gal(b1-4)GlcNAc(b1-2)Man(a1-6)]Man(b1-4)GlcNAc(b1-4)GlcNAc
Summary of the method: as §1

[28] = target: Gal(b1-4)GlcNAc(b1-2)Man(a1-3)[Man(a1-6)]Man(b1-4)GlcNAc(b1-4)GlcNAc
Summary of the method: as §1

[29] = target: Gal(b1-4)GlcNAc(b1-2)Man(a1-6)Man(b1-4)GlcNAc(b1-4)GlcNAc
Summary of the method: as §1

[30] = target: Gal(b1-4)GlcNAc(b1-2)Man(a1-6)[GlcNAc(b1-2)Man(a1-3)]Man(b1-4)GlcNAc(b1-4)GlcNAc
Summary of the method: as §1

[31] = target: Gal(b1-4)GlcNAc(b1-2)Man(a1-6)[Man(a1-3)]Man(b1-4)GlcNAc(b1-4)GlcNAc
Summary of the method: as §1

[32] = target: Gal(b1-4)GlcNAc(b1-2)[Gal(b1-4)GlcNAc(b1-4)]Man(a1-3)[Gal(b1-4)GlcNAc(b1-2)Man(a1-6)]Man(b1-4)GlcNAc(b1-4)GlcNAc
Summary of the method: as §1

[33] = target: Gal(b1-4)GlcNAc(b1-2)[Gal(b1-4)GlcNAc(b1-4)]Man(a1-3)[Gal(b1-4)GlcNAc(b1-2)[Gal(b1-4)GlcNAc(b1-6)]Man(a1-6)]Man(b1-4)GlcNAc(b1-4)GlcNAc
Summary of the method: as §1

[34] = target: Gal(b1-4)GlcNAc(b1-2)[Gal(b1-4)GlcNAc(b1-4)]Man(a1-3)[GlcNAc(b1-4)][Gal(b1-4)GlcNAc(b1-2)Man(a1-6)]Man(b1-4)GlcNAc(b1-4)GlcNAc
Summary of the method: as §1

[35] = target: Gal(b1-4)GlcNAc(b1-2)[Gal(b1-4)GlcNAc(b1-4)]Man(a1-3)[GlcNAc(b1-4)][Gal(b1-4)GlcNAc(b1-2)[Gal(b1-4)GlcNAc(b1-6)]Man(a1-6)]Man(b1-4)GlcNAc(b1-4)GlcNAc
Summary of the method: as §1

[36] = target: Gal(b1-4)GlcNAc(b1-2)[Gal(b1-4)GlcNAc(b1-6)]Man(a1-6)[Gal(b1-4)GlcNAc(b1-2)Man(a1-3)]Man(b1-4)GlcNAc(b1-4)GlcNAc
Summary of the method: as §1

[37] = target: Gal(b1-4)GlcNAc(b1-2)[Gal(b1-4)GlcNAc(b1-6)]Man(a1-6)[Gal(b1-4)GlcNAc(b1-2)Man(a1-3)]Man(b1-4)GlcNAc(b1-4)[Fuc(a1-6)]GlcNAc
Summary of the method: as §1

[38] = target: Gal(b1-4)GlcNAc(b1-2)[Gal(b1-4)GlcNAc(b1-6)]Man(a1-6)[GlcNAc(b1-4)][Gal(b1-4)GlcNAc(b1-2)Man(a1-3)]Man(b1-4)GlcNAc(b1-4)GlcNAc
Summary of the method: as §1

[39] = target: Gal(b1-4)GlcNAc(b1-2)[Gal(b1-4)GlcNAc(b1-6)]Man(a1-6)[GlcNAc(b1-4)][Gal(b1-4)GlcNAc(b1-2)[Gal(b1-4)GlcNAc(b1-4)]Man(a1-3)]Man(b1-4)GlcNAc(b1-4)[Fuc(a1-6)]GlcNAc
Summary of the method: as §1

B1: Gal 2 (Homo sapiens), P05162 (protein)
chain: MTGELEVKNMDMKPGSTLKITGSIADGTDGFVINLGQGTDKLNLHFNPRFSESTIVCNSLDGSNWGQEQREDHLCFSPGSEVKFTVTFESDKFKVKLPDGHELTFPNRLGHSHLSYLSVRGGFNMSSFKLKE
With B1 the “glycan array binding signal (z-score)” value [1] was 0.163, the “glycan array binding signal (z-score)” value (Gal(b1-3)GlcNAc6S) was -0.146 and the “glycan array binding signal (z-score)” value [2] was -0.233. The “glycan array binding signal (z-score)” value [3] was -0.142, the “glycan array binding signal (z-score)” value [4] was 0.139 and the “glycan array binding signal (z-score)” value [5] was -0.144. For the same binder, the “glycan array binding signal (z-score)” value [6] was 0.086, the “glycan array binding signal (z-score)” value [7] was -0.269 and the “glycan array binding signal (z-score)” value [8] was -0.236. The “glycan array binding signal (z-score)” value [9] was -0.216, the “glycan array binding signal (z-score)” value [10] was -0.512 and the “glycan array binding signal (z-score)” value [11] was -0.219. For the same binder, the “glycan array binding signal (z-score)” value [12] was -0.477, the “glycan array binding signal (z-score)” value [13] was -0.056 and the “glycan array binding signal (z-score)” value [14] was -0.217. The “glycan array binding signal (z-score)” value [15] was -0.246, the “glycan array binding signal (z-score)” value [16] was -0.237 and the “glycan array binding signal (z-score)” value [17] was -0.53. For the same binder, the “glycan array binding signal (z-score)” value (Gal(b1-4)Gal) was -0.253, the “glycan array binding signal (z-score)” value [18] was 5.71 and the “glycan array binding signal (z-score)” value [19] was -0.291. The “glycan array binding signal (z-score)” value (Gal(b1-4)Glc) was -0.245, the “glycan array binding signal (z-score)” value (Gal(b1-4)Glc6S) was -0.222 and the “glycan array binding signal (z-score)” value (Gal(b1-4)GlcNAc) was -0.227. For the same binder, the “glycan array binding signal (z-score)” value [20] was -0.219, the “glycan array binding signal (z-score)” value (Gal(b1-4)GlcNAc(b1-2)Man) was -0.092 and the “glycan array binding signal (z-score)” value [21] was -0.166. For the same binder, the “glycan array binding signal (z-score)” value [22] was 1.65, the “glycan array binding signal (z-score)” value [23] was -0.177 and the “glycan array binding signal (z-score)” value [24] was -0.236. The “glycan array binding signal (z-score)” value [25] was -0.215, the “glycan array binding signal (z-score)” value [26] was -0.232 and the “glycan array binding signal (z-score)” value [27] was -0.215. For the same binder, the “glycan array binding signal (z-score)” value [28] was -0.312, the “glycan array binding signal (z-score)” value [29] was -0.13 and the “glycan array binding signal (z-score)” value [30] was -0.287. The “glycan array binding signal (z-score)” value [31] was -0.223, the “glycan array binding signal (z-score)” value [32] was -0.214 and the “glycan array binding signal (z-score)” value [33] was -0.258. For the same binder, the “glycan array binding signal (z-score)” value [34] was 0.049, the “glycan array binding signal (z-score)” value [35] was -0.213 and the “glycan array binding signal (z-score)” value [36] was -0.091. The “glycan array binding signal (z-score)” value [37] was -0.034, the “glycan array binding signal (z-score)” value [38] was -0.086 and the “glycan array binding signal (z-score)” value [39] was -0.211.
